The values below come from ChEMBL document CHEMBL4888484, “Replenishing the malaria drug discovery pipeline: Screening and hit evaluation of the MMV Hit Generation Library 1 (HGL1) against asexual blood stage Plasmodium falciparum ,using a nano luciferase reporter read-out” (2022).

Molecules are shown by their SMILES. The campaign covered roughly 150,000 compounds. About 540 (0.36%) showed an effect of 50% or more. The list shows a part of the results.

For this assay, the system named is Plasmodium falciparum. As to the kind of experiment: Primary screen in NF54 nanoGlo assay, in single point, at 2uM, 72h; a lower Z score goes with more inhibition. The conditions noted are these: timepoint 72 hour. Format: functional, Erythrocyte.
The term % Inhibition denotes the relative decrease from the control value, in per cent. As to `Cc1cc(C)c(NC(=O)CN2CCC3(CC2)N=C(c2ccccc2)C(=O)N3)c(C)c1`, the “% Inhibition” value is reported as -11% and the Z score is 1.12.

Regarding `N#Cc1cccc(C(=O)Nc2ccccc2-c2ccc(=O)[nH]n2)c1`, the “% Inhibition” value was determined as 3% and the Z score is reported as -0.43.

Turning to `c1ccc(-c2csc(N3CCN(c4ccccn4)CC3)n2)cc1`, the “% Inhibition” value is listed as 2% and the Z score is listed as -0.26.

`C=CCOC[C@@H](O)CN(CCCOC)Cc1ccc(F)cc1F`: the “% Inhibition” value is -1% and the Z score was found to be 0.17.

Consider `Cc1cc(=O)c(C(=O)N2CCC(C)(C(=O)N(C)C)CC2)cn1C`, for which the “% Inhibition” value is recorded as -10% and the Z score was 0.96.

Turning to `O=C(Nc1cccc(CO)c1)C1=CCCC1`, the “% Inhibition” value is -6% and the Z score is recorded as 0.92.

Consider `Cc1ccc(C2CN(C)C3(C(=O)N(Cc4cccc(Cl)c4)c4ccccc43)C2C(=O)c2ccccc2)cc1` (centres undefined), for which the “% Inhibition” value is 3% and the Z score is -0.36.

`O=C(NCC1CCN(Cc2nnc(-c3ccccc3)o2)CC1)[C@H]1CCCO1`: the “% Inhibition” value was 6% and the Z score is -1.08.

Take `CCn1cc(S(=O)(=O)N2CC[C@H](CCOc3ccccc3F)C2)cn1`: the “% Inhibition” value is given as -23% and the Z score stood at 4.44.

Consider `CNC(=O)Cn1nc(COC)n(-c2ccc3c(c2)OCO3)c1=O`, for which the “% Inhibition” value was -4% and the Z score was 0.77.

Take `O=C(Cn1cnc2ccccc2c1=O)NCc1cc(C2CC2)ncn1`: the “% Inhibition” value was found to be 21% and the Z score is -2.77.

As for `Cc1ccc(-n2cccc2CC(=O)N[C@@H](C)c2cccnc2)cc1`, the “% Inhibition” value was 3% and the Z score was -0.45.

With `COC(=O)C[C@H]1CN(C(=O)CCN2C(=O)c3ccc(C)cc3C2=O)CCO1`, the “% Inhibition” value was -6% and the Z score is 1.1.

Turning to `CC(=O)c1cccc(NC(=O)Cn2nc3c(N4CCCCCC4)nccn3c2=O)c1`, the “% Inhibition” value is -4% and the Z score is reported as 0.38.

Take `Cc1ccccc1Cn1c2c(c(C)c1C(=O)NCc1ccc3c(c1)OCO3)CCCC2`: the “% Inhibition” value is reported as -17% and the Z score amounted to 2.5.

For the molecule `CC(C)(C)OC(=O)N1CCC[C@H](NC(=O)c2ccccc2Br)CC1`, the “% Inhibition” value is on record as 0% and the Z score is recorded as -0.08.

Consider `O=S(=O)(c1ccc(Cl)cc1)N1CCC(n2cnc3cccnc32)CC1`, for which the “% Inhibition” value is -1% and the Z score is reported as 0.09.

With `CCn1cc(C)c(C(=O)O)c1CC(=O)N1CCN(c2ccc(F)cc2)CC1`, the “% Inhibition” value was -5% and the Z score amounted to 0.6.

Take `O=C(C(F)F)N1CCCc2c(Br)cccc2C1`: the “% Inhibition” value is given as -11% and the Z score came to 1.32.

Turning to `COc1ccc(C(=O)NCCNC(=O)c2nc(-c3cccc(C)c3)no2)cc1OC`, the “% Inhibition” value was -12% and the Z score is recorded as 1.17.

Turning to `O=C(Cn1nnc2ccccc21)N(Cc1cccnc1)C1(C(=O)Nc2ccc(N3CCOCC3)cc2)CCCCC1`, the “% Inhibition” value is 2% and the Z score is given as -0.25.

Take `O=C(C1CCC1)N1CCO[C@H](c2cc(Cl)cc(Cl)c2)C1`: the “% Inhibition” value was -6% and the Z score amounted to 0.75.

As to `CCC[C@H](C)C(=O)N1CCc2c(c(C(=O)O)nn2Cc2ccc(OC)cc2)C1`, the “% Inhibition” value is on record as -11% and the Z score came out at 1.35.

With `CC(C)[C@H](CNC(=O)CCCOc1ccccc1Br)N1CCOCC1`, the “% Inhibition” value was -16% and the Z score is reported as 2.09.

With `COc1cccc(N2CCC(N3C[C@H](O)[C@@H](F)C3)CC2)c1`, the “% Inhibition” value is recorded as 1% and the Z score is on record as -0.1.

`COc1c(N)ccnc1C#CCC1CCCC1`: the “% Inhibition” value worked out at 3% and the Z score is reported as -0.34.

In the case of `Cc1oc(-c2ccc(C(C)C)cc2)nc1Cn1c(=O)cc(-c2ccccc2)c2c(C)nn(C)c21`, the “% Inhibition” value is -6% and the Z score amounted to 1.11.

As to `CC(C)c1cc(CN(C)C(=O)[C@@H](C)Cn2cccn2)on1`, the “% Inhibition” value is reported as -11% and the Z score is 2.19.

On to `Cc1nc(C(=O)N[C@@H]2CNC(=O)C2)c(Br)s1`, for which the “% Inhibition” value is -11% and the Z score came out at 1.43.

With `CC(C)[C@H](NC(=O)CCS(=O)(=O)N(C)C)c1cnn(C)c1`, the “% Inhibition” value is on record as -5% and the Z score stood at 0.63.

Take `Cc1cc([C@@H](C#N)c2ccc(Cl)cc2)c(Cl)cc1NC(=O)Cc1ccc(F)cc1`: the “% Inhibition” value was 4% and the Z score is listed as -0.5.

For `Cc1ccc(C(=O)N2CCN(C(=O)NCc3ccc(Cl)cn3)CC2)cc1`, the “% Inhibition” value is -2% and the Z score turned out to be 0.25.

With `C1=Cn2nc(/C=C/c3c[nH]c4ccccc34)nc2-c2ccccc2O1`, the “% Inhibition” value is on record as -30% and the Z score came to 3.55.

In the case of `COc1ccc(C(C)CN2CCC(S(=O)(=O)NC(C)C)C2)cc1` (centres undefined), the “% Inhibition” value is on record as -10% and the Z score was determined as 0.93.

`Cc1ccc2nccc(C(=O)N3CCC[C@@](CO)(CCOc4ccccc4)C3)c2c1`: the “% Inhibition” value is on record as -2% and the Z score is on record as 0.44.

For the molecule `CN(CCNS(C)(=O)=O)CCc1nccs1`, the “% Inhibition” value was -14% and the Z score is on record as 1.42.

In the case of `CC(=O)NCCCS(=O)(=O)c1ccc(F)c(F)c1`, the “% Inhibition” value was -10% and the Z score was determined as 1.32.

On to `Cc1nnc([C@H](C)N(C)CC2(C)CCN(Cc3ccccc3)CC2)o1`, for which the “% Inhibition” value is listed as -5% and the Z score was determined as 0.84.

As to `O=S(=O)(c1ccccc1)N1CCC(c2nccn2CC2CC2)CC1`, the “% Inhibition” value was -16% and the Z score is on record as 1.97.

For `CC1(C)C[C@@H](NC(=O)c2ccnc3ccncc23)CCS1(=O)=O`, the “% Inhibition” value is 10% and the Z score is given as -1.07.

Regarding `C[C@]1(CCC(=O)NCc2cc(-c3ccccc3)[nH]n2)CCC(=O)N1`, the “% Inhibition” value worked out at 1% and the Z score is listed as -0.1.

On to `c1ccc(CNc2cc(-n3cccn3)nc(-c3ccccc3)n2)cc1`, for which the “% Inhibition” value was found to be 7% and the Z score is given as -1.27.
